Measured values: PubChem BioAssay AID881 (National Center for Advancing Translational Sciences (NCATS), 2007)
Screen size: about 110,000 compounds; about 610 (0.55%) were called active. The inconclusive results got no clear call from the source; some entries with a clear call stand among them for comparison. The call rests on the fitted dose curve; in most records, active means well fitted inhibition curve with a large enough effect; inconclusive means small, poorly fitted or top-dose-only effect; inactive means no such curve, though single readings can be large or run the other way. Where the call is inconclusive, the potency comes from a doubtful curve fit.

What follows are compounds tested against Polyunsaturated fatty acid lipoxygenase ALOX15B (Homo sapiens) (UniProt O15296) (assay: qHTS Assay for Inhibitors of 15-hLO-2 (15-human lipoxygenase 2)). Conditions: purified 15hLO-2, xylenol orange hydroperoxide absorbance; activity change, negative = inhibition: at 57.1 µM (top of the series) unless noted.
Method in brief: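 Read-out: hydroperoxide product oxidises ferrous iron, measured as xylenol orange complex via the 573-to-405 nm absorbance ratio after 30 min. Reaction: 50 nM enzyme, 15 min compound preincubation, 45 uM arachidonic acid, 90 min RT, Hepes pH 7.5 with Triton X-100.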
Further: nearly all actives have a fitted effect of over 60% in size.
On the % scale 0 is the no-effect control and ±100 the full control effect; potency means the concentration at half of the fitted maximal effect; tags describe the fitted curve by direction and shape.

UniProt O15296, sequence (O15296 whole entry, looked up): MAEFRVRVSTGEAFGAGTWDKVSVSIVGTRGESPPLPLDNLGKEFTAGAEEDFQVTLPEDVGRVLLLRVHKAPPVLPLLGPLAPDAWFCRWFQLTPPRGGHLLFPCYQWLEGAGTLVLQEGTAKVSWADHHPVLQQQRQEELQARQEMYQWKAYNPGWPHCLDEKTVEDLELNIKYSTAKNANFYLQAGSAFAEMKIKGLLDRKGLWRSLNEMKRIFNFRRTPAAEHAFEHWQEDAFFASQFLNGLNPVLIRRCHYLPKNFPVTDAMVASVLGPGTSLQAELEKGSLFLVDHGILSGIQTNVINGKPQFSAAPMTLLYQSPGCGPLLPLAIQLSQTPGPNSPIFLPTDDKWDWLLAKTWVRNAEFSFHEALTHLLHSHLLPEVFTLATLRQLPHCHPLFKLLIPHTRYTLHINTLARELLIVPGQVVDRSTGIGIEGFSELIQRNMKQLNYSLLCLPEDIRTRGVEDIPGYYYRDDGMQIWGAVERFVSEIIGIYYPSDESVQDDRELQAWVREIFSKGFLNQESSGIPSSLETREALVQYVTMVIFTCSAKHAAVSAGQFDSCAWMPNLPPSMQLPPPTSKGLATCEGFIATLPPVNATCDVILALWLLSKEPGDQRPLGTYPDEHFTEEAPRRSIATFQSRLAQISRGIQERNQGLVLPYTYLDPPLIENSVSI

Compound	Potency	activity change, negative = inhibition
N#CC1=C2SCN(c3ccccc3)CN2C(=O)CC1c1ccccc1Cl (stereo not given)	active: 7.94 µM	
O=C(c1ccc(CNc2c(NC3CCCCC3)c(=O)c2=O)cc1)N1CCc2ccccc21	inconclusive: 15.8 µM [inhibitor, partial curve]	
COc1ccccc1CNC(=O)COC(=O)c1cc(-c2ccco2)nc2ccccc12	inconclusive: 25.1 µM [inhibitor, single point]	
O=C(c1cc(-c2ccco2)on1)N1CCc2ccccc2C1	inconclusive: 12.6 µM [inhibitor, partial curve]	
COc1ccc(CCNC(=O)c2ccncc2)cc1OC	inactive	
CC(C)C(=O)N(c1ccc2oc(=O)sc2c1)S(=O)(=O)c1ccccc1	inactive	
Cc1ccc(CSC2=Nc3ccccc3C3=NC(CC(=O)NCc4ccco4)C(=O)N23)cc1 (stereo not given)	inconclusive: 25.1 µM [inhibitor, single point]	
Cc1ccc2oc(=O)c3c4cc(O)c(O)cc4oc3c2c1	inconclusive: 10 µM [inhibitor, partial curve]	
CCOC(=O)C(C)n1cnc2c(oc3ccccc32)c1=O (stereo not given)	inconclusive: 0.316 µM [inhibitor, partial curve]	
Cc1ccc(-c2nc3cnccn3c2Nc2ccccc2)o1	inconclusive: 10 µM [inhibitor, partial curve]	
CSc1nsc(/C=C/Nc2ccc(C)cc2)c1C#N	inconclusive: 12.6 µM [inhibitor, partial curve]	
CCC1=C2CC[C@H]3C(=O)N(c4ccccc4)C(=O)[C@H]3[C@H]2[C@@]2(Cc3ccccc3)C(=NCC3CC3)OC(=O)N2C1=O	inactive	
CC(C)CN=C(N)N=C(N)N		inactive: -1.42% [at 11.4 µM]
CCOc1cccc(C(=O)NC(=S)Nc2ccc(N3CCCC3)cc2)c1	inconclusive: 12.6 µM [inhibitor, single point]	
FC(F)(F)c1ccc(CSc2nccn2-c2ccccc2)cc1	inconclusive: 15.8 µM [inhibitor, partial curve]	
C=CCOC(=O)C(C#N)c1nc2ccccc2nc1N1CCN(Cc2ccc3c(c2)OCO3)CC1 (stereo not given)	inactive	
CCc1ccc2c(c1)/C(=C/C(=O)c1cccs1)C(=O)N2	inconclusive: 12.6 µM [inhibitor, partial curve]	
COc1ccc(CCNC(=S)NC(=O)c2ccccc2)cc1OC	active: 12.6 µM	
COc1ccc(Cn2c(C)cc3c(c2=O)C(c2cccs2)C(C#N)=C(N)O3)cc1OC (stereo not given)	inconclusive: 25.1 µM [inhibitor, single point]	
O=C(CSc1nnc(CNc2ccc(F)cc2)o1)N1c2ccccc2Sc2ccccc21	inconclusive: 10 µM [inhibitor, partial curve]	
N#C/C(=C\c1ccc(-c2cccc(Cl)c2)o1)C(=O)Nc1cccc2cccnc12	inconclusive: 15.8 µM [inhibitor, partial curve]	
Nc1nc2c(ncn2C2CC(O)C(CO)O2)c(=O)[nH]1 (stereo not given)	inactive	
O=C(c1ccco1)N1CCN(C(c2ccccc2Cl)c2nnnn2Cc2ccco2)CC1 (stereo not given)	inconclusive: 25.1 µM [inhibitor, single point]	
COc1cc(C2Nc3cccc4cccc(c34)N2)ccc1OC(C)=O	inconclusive: 3.16 µM [inhibitor, full curve]	

Compound	Potency	activity change, negative = inhibition
CCOC(=O)c1c(-c2ccc(C)cc2)csc1NC(=O)c1cc2ccccc2oc1=O	inconclusive: 25.1 µM [inhibitor, partial curve]	
O=c1cc(-c2ccccc2Cl)oc2c(NS(=O)(=O)c3cc(Cl)cc(Cl)c3O)ccc(O)c12	active: 15.8 µM	
COc1ccc2nc(C)cc(SCC(=O)N/N=C/c3cccc4ccccc34)c2c1	inconclusive: 31.6 µM [inhibitor, single point]	
O=C(c1ccco1)N1CCC2(CC1)CN(c1ccc(-c3ccccc3)cc1)C2	inconclusive: 12.6 µM [inhibitor, partial curve]	
COc1ccc(-c2nnc(SCc3nnc(-c4ccccc4)o3)n2-c2ccccc2)cc1	inconclusive: 25.1 µM [inhibitor, single point]	
O=C(Nc1ccc(F)cc1)Nc1nnc(-c2ccncc2)s1	inconclusive: 15.8 µM [inhibitor, partial curve, poor fit]	
Cc1c(NS(=O)(=O)c2ccc3c(c2)CCN3C(=O)C2CC2)c(=O)n(-c2ccccc2)n1C	inactive	
CC(C)C(c1nnnn1C1CCCC1)N(C)C1CCCCC1 (stereo not given)	inactive	
C=CCNC(=O)c1ccc(OC)cc1OC	inconclusive: 5.01 µM [inhibitor, single point]	
COC(=O)c1ccccc1NC(=S)NC(=O)c1ccccc1C	inconclusive: 15.8 µM [inhibitor, partial curve]	
O=C(c1ccc2c(=O)n(C3CCCC3)c(=S)[nH]c2c1)N1CCc2ccccc21	inconclusive: 25.1 µM [inhibitor, partial curve]	
CC1CCCC(C)N1C(=O)Cn1cc(/C=C2/C(=O)Nc3ccccc32)c2ccccc21 (stereo not given)	inconclusive: 15.8 µM [inhibitor, partial curve]	
Cc1ccc(C2(c3ccc(C)cc3)CC2C(=O)Nc2ccc([N+](=O)[O-])cc2O)cc1 (stereo not given)	inconclusive: 20 µM [inhibitor, partial curve]	
Cc1nc2cnc(Oc3cccc(Cl)c3)nc2n(CCc2ccccc2)c1=O	inactive	
CCOc1ccc2nc(NCCNC(=O)Nc3ccccc3)c(C#N)cc2c1	inconclusive: 31.6 µM [inhibitor, single point]	
COCCn1c(C)cc(C2=NNC(=Nc3ccc(Cl)cc3Cl)SC2)c1C	inconclusive: 15.8 µM [inhibitor, partial curve]	
Cc1ccc(CNC(=O)Nc2cccs2)cc1	inconclusive: 31.6 µM [inhibitor, single point]	
COc1ccc(/C=C/C(=O)c2cc(O)ccc2O)cc1	inconclusive: 25.1 µM [inhibitor, single point]	
O=C(NC(NNc1ccc([N+](=O)[O-])cc1)(C(F)(F)F)C(F)(F)F)c1ccccc1Cl	inconclusive: 2.51 µM [inhibitor, partial curve]	
CCCCn1c(=S)[nH]c2cc(S(=O)(=O)N3CCCCC3)ccc21	inconclusive: 31.6 µM [inhibitor, single point]	
COc1ccccc1N1CSC2=C(C#N)C(c3ccc(SC)cc3)CC(=O)N2C1 (stereo not given)	active: 20 µM	
COc1cccc(-c2cncnc2NCc2cccnc2)c1	inconclusive: 39.8 µM [inhibitor, single point]	
CCOC(=O)N1CCN(c2nc(-c3ccco3)cc(C(F)(F)F)n2)CC1	inconclusive: 0.199 µM [inhibitor, full curve]	
CCCc1cc(-c2n[nH]c(=S)n2Cc2ccccc2)cs1	inconclusive: 12.6 µM [inhibitor, partial curve]	

Compound	Potency	activity change, negative = inhibition
O=C(c1ccc(Cl)s1)N1CCc2ccccc21	inactive	
N#CC1=C2SCN(Cc3ccco3)CN2C(=O)CC1c1c(F)cccc1Cl (stereo not given)	inconclusive: 39.8 µM [inhibitor, single point]	
CCOC(=O)C1=C(Cc2ccc(Cl)cc2)C(=O)c2ccccc2C1=O	active: 10 µM	
O=[N+]([O-])C1=C(Nc2cccc3ccccc23)CS(=O)(=O)C1	inactive	
O=C(c1cc2c(s1)CCC2)N1CCN(c2ccccc2)CC1	inconclusive: 15.8 µM [inhibitor, partial curve]	
CCCCCCCC[N+](CCCCCCCC)(CCCCCCCC)CCCCCCCC	active: 31.6 µM	
CCCCn1c(-c2csc3c2CCCC3)n[nH]c1=S	inconclusive: 15.8 µM [inhibitor, partial curve]	
CCN1C(=C2C(=O)c3ccccc3C2=O)C=Cc2ccccc21	inactive	
CCOC(=O)c1c(NC(=S)Nc2ccccc2)sc2c1CCCCC2	inconclusive: 25.1 µM [inhibitor, single point]	
O=C(COC(=O)c1n[nH]c2ccccc12)NC(=O)NCc1ccco1	inactive	
O=C(CSc1n[nH]c(-c2cccs2)n1)NCc1ccc2c(c1)OCO2	inactive	
CC(=NC1CCCCC1)C1=C(O)c2ccccc2C1=O	active: 15.8 µM	
CCc1ccccc1N1CSC2=C(C#N)C(c3ccccc3F)CC(=O)N2C1 (stereo not given)	active: 10 µM	
Cc1cc(=O)cc2oc3cc(N)c(-c4c(C)cc(O)cc4O)c(C)c3nc1-2	inconclusive: 7.94 µM [inhibitor, partial curve, poor fit]	
CCOC(=O)c1[nH]c2cc(OC)c(OC)cc2c1N	inconclusive: 31.6 µM [inhibitor, single point]	
Cn1c(N)c(C(=O)NCc2ccccc2)sc1=S	inactive	
COc1ccccc1N(O)C1CC(=O)N(c2ccc(Br)cc2)C1=O (stereo not given)	inconclusive: 10 µM [inhibitor, partial curve]	
Cc1cc(=O)oc2cc(OCC(=O)Nc3nnc(C(C)C)s3)ccc12	inactive	
O=[N+]([O-])c1cccc(-c2ccc(/C=N/NC(=S)Nc3ccccc3)o2)c1	inconclusive: 12.6 µM [inhibitor, partial curve, poor fit]	
COc1cc(C2c3c(oc4ccccc4c3=O)C(=O)N2Cc2ccco2)ccc1O (stereo not given)	inconclusive: 39.8 µM [inhibitor, single point]	
CC(=O)NCCNc1ncncc1-c1ccccc1C	inconclusive: 39.8 µM [inhibitor, single point]	
COc1ccc(C2C3=C(N=C4SCC(=O)N42)c2ccccc2CC3)cc1OC (stereo not given)	inconclusive: 15.8 µM [inhibitor, partial curve]	
